The whole screen tested about 48,000 compounds, of which about 550 (1.1%) were called active. Inconclusive results (about 4%) are left out. Cut-off read from the data, not from the text of the source: active = potency below about 15 µM; inconclusive = mostly about 16 µM to 33 µM; inactive = weaker than that. The list shows a part of the results.
What follows are compounds tested against Lysosomal acid glucosylceramidase (Homo sapiens) (UniProt P04062) (assay: Glucocerebrosidase). Details: purified enzyme, resorufin glucoside fluorescence (screen aimed at inhibitors), 20 min.
Procedure, shortened: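 Compounds titrated against 0.2 nM normal enzyme, 30 uM resorufin beta-D-glucopyranoside substrate, citrate/phosphate buffer with taurocholate and tween-20, pH 5.9. Reaction ran 20 min at room temperature; fluorescence (Ex 548/Em 600) gave AC50.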
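Note: the screen sought inhibitors.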
Potency is the fitted concentration of half-maximal effect.

Chain of UniProt P04062 (P04062 whole entry, looked up): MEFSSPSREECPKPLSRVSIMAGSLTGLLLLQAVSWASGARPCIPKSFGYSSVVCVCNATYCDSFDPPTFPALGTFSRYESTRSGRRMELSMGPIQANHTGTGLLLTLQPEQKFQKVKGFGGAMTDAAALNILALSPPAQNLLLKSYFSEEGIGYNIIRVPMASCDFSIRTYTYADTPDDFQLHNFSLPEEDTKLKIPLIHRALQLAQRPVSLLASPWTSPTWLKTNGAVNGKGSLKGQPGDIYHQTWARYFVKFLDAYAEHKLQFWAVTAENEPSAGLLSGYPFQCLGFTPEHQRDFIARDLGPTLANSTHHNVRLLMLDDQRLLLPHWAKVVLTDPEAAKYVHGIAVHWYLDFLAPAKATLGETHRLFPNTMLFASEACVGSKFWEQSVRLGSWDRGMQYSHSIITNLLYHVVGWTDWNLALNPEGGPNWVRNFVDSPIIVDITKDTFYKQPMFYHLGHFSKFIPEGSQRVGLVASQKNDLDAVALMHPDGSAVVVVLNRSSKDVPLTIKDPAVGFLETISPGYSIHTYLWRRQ

Potency, inactive:
CCCc1cc(=O)n2[nH]c(CCc3ccccc3)nc2n1 > 76.9 µM
O=C(c1cnn2cccnc12)N1CCN(Cc2ccc3c(c2)OCO3)CC1 > 76.9 µM
Cc1c(N=C2Nc3cccc4cccc2c34)c(=O)n(-c2ccccc2)n1C > 76.9 µM
CN1CCCN(C(=O)Cc2c(Cl)cccc2Cl)c2nc3ccccc3nc21 > 76.9 µM
CCOc1ccc(-n2c(SC)nc3c(c2=O)SCC3)cc1 > 76.9 µM
Cc1cc(NC(=O)CSc2nnc3c(C)cc4cc5c(cc4n23)OCO5)no1 > 76.9 µM
O=C(NCCNC(=O)c1cccs1)c1ccco1 > 76.9 µM
COC(=O)[C@H](C)NC(=O)Nc1cc(OC)ccc1OC > 76.9 µM
CCN(CC)S(=O)(=O)c1ccc(-c2nnc(SCC(=O)Nc3ccc4c(c3)OCO4)o2)cc1 > 76.9 µM
Cc1nc(CNS(=O)(=O)c2cccc(F)c2)cs1 > 76.9 µM
COC(=O)CCCC[C@H]1SC[C@H]2NC(=O)N[C@]21O
CCCCCn1c(N2CCN(c3cccc(Cl)c3)CC2)nc2c1c(=O)[nH]c(=O)n2C > 76.9 µM
CNc1nc(SCc2ccccc2)nc(N2CCOCC2)n1 > 76.9 µM
COc1cc(OC)cc(C(=O)N(CN2CCCC2=O)c2ccccc2OC)c1 > 76.9 µM
COc1ccccc1C(c1nnnn1CS(=O)(=O)c1ccc(C)cc1)N1CCSCC1 (stereo not given) > 76.9 µM
Cc1ccc(-c2oc3ncnc(N)c3c2-c2ccc(C)cc2)cc1 > 76.9 µM
COc1ccc(Cl)c(NC(=O)Nc2c(C)n(-c3ccccc3)c(=O)n2C)c1 > 76.9 µM
O=C(CSC1=NCCS1)N1CCCCCC1 > 76.9 µM
CCC(=O)Nc1ccc(Cl)c(NC(=O)C(C)C)c1 > 76.9 µM
O=C(Nc1ccccc1Cl)c1cnccn1 > 76.9 µM
COc1ccccc1-c1nnc(SCC(=O)N2CCC(C)CC2)o1 > 76.9 µM
O=c1[nH]c(N2CCc3ccccc3C2)nc2c1CCC2 > 76.9 µM
O=C(CCN1C(=O)C2C3C=CC(C3)C2C1=O)N1CCN(c2ccc(F)cc2)CC1 (stereo not given) > 76.9 µM
COc1ccccc1C(=O)NCC(c1cccnc1)N(C)C (stereo not given) > 76.9 µM
COc1ccc(CC(=O)N2CCN(c3ccccn3)CC2)cc1 > 76.9 µM
COc1cc(S(=O)(=O)NCC2CCCO2)c(OC)cc1Cl (stereo not given) > 76.9 µM
CC1Cc2ccccc2N1CC(=O)NC(=O)NCc1ccco1 (stereo not given) > 76.9 µM
O=c1cccc(-c2ccccc2)[nH]1 > 76.9 µM
COc1ccc(-c2nnc(SCC(=O)Nc3ncc(C)s3)n2-c2ccccc2)cc1OC > 76.9 µM
CS(=O)(=O)N1CCN(C(=O)c2ccc(F)cc2)CC1 > 76.9 µM
CCc1ccccc1NS(=O)(=O)c1cc(C)ccc1OC > 76.9 µM
O=C(O)Cc1cc2c(s1)CCCCC2 > 76.9 µM
Cc1cc(N2CCN(c3cccc(C(F)(F)F)c3)CC2)n2nc(C)nc2n1 > 76.9 µM
O=C(Nc1nc(-c2ccccc2)cs1)C1CCCN(S(=O)(=O)c2ccccc2)C1 (stereo not given) > 76.9 µM
Cc1cccc2cc(CN(Cc3ccco3)C(=O)c3cccs3)c(=O)[nH]c12 > 76.9 µM
C=CCSc1nc2c(c(=O)[nH]c(=O)n2C)n1C(C)C > 76.9 µM
COc1ccc(NC(=O)COc2nc(N(C)C)nc(N(C)C)n2)cc1 > 76.9 µM
COCC(=O)Nc1nc2n(n1)C(c1ccc(OC)cc1)CC(c1ccc(OC)cc1)N2 (stereo not given) > 76.9 µM
Cc1cccc(-n2c(=O)[nH]c3c(C(N)=O)nc(C(C)C)nc32)c1 > 76.9 µM
COC(=O)c1cc(C)sc1NC(=O)CCCC(=O)O > 76.9 µM
Cn1nc(-c2ccc(N3CCCCC3)c(NC(=O)c3ccco3)c2)c2ccccc2c1=O > 76.9 µM
C/C(N)=C(/C#N)C(=O)COc1ncnc2ccccc12 > 76.9 µM
Cc1ccc(-c2csc(N(CCCN3CCOCC3)C(=O)c3ccco3)n2)cc1 > 76.9 µM
CCOC(=O)N1CCC(NC(=O)CSc2cc(=O)n(CC)c3ccccc23)CC1 > 76.9 µM
CC1CCCCC1NC(=O)c1nn(C)c(=O)c2ccccc12 (stereo not given) > 76.9 µM
Cc1ccc(NC(=O)CC2SCCNC2=O)cc1Cl (stereo not given) > 76.9 µM
COc1ccc(CC(=O)c2ccccc2C(=O)O)cc1 > 76.9 µM
Cc1cc(-c2nn3c(C)nnc3s2)ccc1NC(=O)C(C)(C)C > 76.9 µM
O=C(NCc1cccc(Cl)c1)c1cccnc1 > 76.9 µM
Cc1nn(-c2ccccc2)c(C)c1NS(=O)(=O)c1ccccc1 > 76.9 µM
c1ccc(N2CCN(c3c4c(nc5ncnn35)CCC4)CC2)cc1 > 76.9 µM
O=C(NC1CCCCC1)NC1CC2CCC(C1)N2C(=O)NC1CCCCC1 (stereo not given) > 76.9 µM
COC(=O)CC1Sc2ccccc2NC1=O (stereo not given) > 76.9 µM
Cc1cc(=O)oc(C)c1C(=O)NCCCN1CCN(c2ccc(F)cc2)CC1 > 76.9 µM
COc1ccc(NC(=O)c2ocnc2C)cc1OC > 76.9 µM
CCOC(=O)CNC(=O)C(=O)c1c(O)[nH]c2ccccc12 > 76.9 µM
Cc1ccc(OCCSc2nnc(-c3ccncc3)n2C)cc1 > 76.9 µM
NC(=O)c1cc(-c2ccccc2)nc(N2CCOCC2)n1 > 76.9 µM
O=C(COC(=O)c1ccco1)NCc1ccco1 > 76.9 µM
Cc1c(NC(=O)Cn2nc(C(=O)O)c3ccccc3c2=O)c(=O)n(-c2ccccc2)n1C > 76.9 µM
